In the supplement of paper PMC11417369:
The other results are listed elsewhere or left out.

The sequences below were run on PfHDP1 homeodomain (GST-tagged) (assay: gcPBM binding intensity (ln(normalized median fluorescence intensity)); higher = stronger DNA binding).
How it was run: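 Each value is the highest Masliner-normalised natural-log median intensity across replicate spots of either orientation of a probe. The probes were primer-extended double-stranded 36-bp intergenic genomic sequences on an Agilent 4 × 180k array, alongside negative controls, exposed for 1 h to GST-tagged P. falciparum DNA-binding domains expressed in E. coli. Bound protein was picked up with Alexa488 anti-GST antibody and scanned at 488 nm.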
In the case of “GCTTTTTATTTTTACCGTACATTATATATGTATATA [XGTACX_site808]”, the “gcPBM binding intensity (ln)” value is reported as 7.64.
For “ATCAGTCGGCAGGACAGTACACAGTAGCCAGGAAAT [XGTACX_site2003]”, the “gcPBM binding intensity (ln)” value was 6.32.
With “TTTTGGCTGATCAGATTTAACAAAAAAAAAAAAAAA [CACACA_negctrl_site671]” the “gcPBM binding intensity (ln)” value was 6.06.
“CAAATGTAGAAAATGTGTACATAAAAAAAAAAAAAA [XGTACX_site8276]” was tested, and the “gcPBM binding intensity (ln)” value was 6.64.
With “AGTCAATTTTGTGTGTCAACATTTATATAAAGAATG [TGCATGCA_negctrl_site400]” the “gcPBM binding intensity (ln)” value was 6.47.
With “TGTGAAAATTATGGGGCATGCAATACTTTAAAAATA [TGCATGCA_site653]” the “gcPBM binding intensity (ln)” value was 6.75.
For “CAAATATATATTTTCTGTACAAATACAATTAATACT [XGTACX_site2694]”, the “gcPBM binding intensity (ln)” value was 6.45.
With “CCTTCAATTTACATAACACACATTTAACCATAATAA [CACACA_site2394]” the “gcPBM binding intensity (ln)” value was 6.68.
In the case of “TTTAGCCAATTTTTAAAGTTTAAAAAAGAAAAAAGA [CACACA_negctrl_site118]”, the “gcPBM binding intensity (ln)” value is reported as 6.27.
With “TATTAAAAATACATATGTACTCATAGCATAAAACAT [XGTACX_site8686]” the “gcPBM binding intensity (ln)” value was 6.72.
In the case of “TTATATTTTCAGAATAGTACACATATATACATATAT [XGTACX_site2519]”, the “gcPBM binding intensity (ln)” value is reported as 6.46.
With “AAAAATTCTTGGCGCACACACTTTAAAAATTAAAAA [CACACA_site4498]” the “gcPBM binding intensity (ln)” value was 7.15.
“TTATAAAAGAAAAAAAAAAAAAAAAAAAAAAAAAAA [CACACA_negctrl_site1006]” was tested, and the “gcPBM binding intensity (ln)” value was 6.11.
With “GATCATTTAAAATAAGTAATATTTTTTTTACTTTTG [TGCATGCA_negctrl_site602]” the “gcPBM binding intensity (ln)” value was 5.9.
With “ACTAATTACTATAAAACACACATATATATATATATA [CACACA_site2591]” the “gcPBM binding intensity (ln)” value was 9.48.
With “TTAGTCGAATGATGTACACACATACAAAACATTTAT [CACACA_site6076]” the “gcPBM binding intensity (ln)” value was 6.49.
With “AAAAAAAAAAAAAAAAAAAAAAAAAAAAGAAAAAAG [GTGCAC_negctrl_site583]” the “gcPBM binding intensity (ln)” value was 7.19.
In the case of “AGAAAATATTTTGGTTGTACAGGCGATTTATATGTT [XGTACX_site7253]”, the “gcPBM binding intensity (ln)” value is reported as 6.58.
“TATATATATATATATACACACATTTTTAATGATAAA [CACACA_site2695]” was tested, and the “gcPBM binding intensity (ln)” value was 9.36.
For “TATAAATACAATTCACAAGAGATCATGTATCAAACC [CACACA_negctrl_site1219]”, the “gcPBM binding intensity (ln)” value was 6.04.
“TTTCTAGTTACAAGAGTGCATAATATATAAAAATAA [GTGCAC_site9874]” was tested, and the “gcPBM binding intensity (ln)” value was 8.74.
For “ATATAATAAATATGTTGTACTATAAAAAATAGCCAT [XGTACX_site4710]”, the “gcPBM binding intensity (ln)” value was 6.12.
“CATATATGTTATATTTAACACACATATAAGGTACAT [CACACA_site8105]” was tested, and the “gcPBM binding intensity (ln)” value was 6.51.
“ATCTCTGTAAAGATCACACATATATTTTTGTTATAT [CACACA_site5094]” was tested, and the “gcPBM binding intensity (ln)” value was 6.51.
With “TTTATAATTTATATCACACATATATCTGTAATAAAT [CACACA_site5048]” the “gcPBM binding intensity (ln)” value was 6.44.
“TATATATTATATATATGTACATATTGTTGTGTATAT [XGTACX_site767]” was tested, and the “gcPBM binding intensity (ln)” value was 7.15.
For “CAGCTCTTAAAAATTACACACATATACACATATATA [CACACA_site9073]”, the “gcPBM binding intensity (ln)” value was 6.62.
“ATAAAAATAAAAAAAACACACATACCTTATTTTTGT [CACACA_site5452]” was tested, and the “gcPBM binding intensity (ln)” value was 6.63.
For “GTGCATAAATCATACACACACACATATATATATATA [CACACA_site2423]”, the “gcPBM binding intensity (ln)” value was 9.32.
With “AAATATAAATGGTAATACACATACACACACACATAC [XGTACX_negctrl_site459]” the “gcPBM binding intensity (ln)” value was 7.38.
For “TATAAAAAATTATGTTGTACGTAATATAAAATTTGT [XGTACX_site7122]”, the “gcPBM binding intensity (ln)” value was 6.32.
For “AATCAAAATAAATTAACACACAATTTTAATATTGTT [CACACA_site10]”, the “gcPBM binding intensity (ln)” value was 6.13.
“ATTTTCCATATATTTTGTACATATGTATATTTTCCC [XGTACX_site7795]” was tested, and the “gcPBM binding intensity (ln)” value was 7.23.
With “TATTTTTAACAGTGCACACATAACTTAATTATATGT [CACACA_site2194]” the “gcPBM binding intensity (ln)” value was 9.55.
“CCAGGAAAAATTTATTGTACATATATTTTTATGCTC [XGTACX_site7154]” was tested, and the “gcPBM binding intensity (ln)” value was 6.53.
“TATATTAAAAAAAAATGTACACATATATATATATAT [XGTACX_site4524]” was tested, and the “gcPBM binding intensity (ln)” value was 9.21.
“ATATTATTAATTTGTTGTACAGTTCTTTATTTATAG [XGTACX_site7932]” was tested, and the “gcPBM binding intensity (ln)” value was 6.72.
In the case of “TATATGTTTGAATATACACACAACATATATATATAT [CACACA_site4066]”, the “gcPBM binding intensity (ln)” value is reported as 9.03.
TATTTTTGGTTATGTGTGCACTATGAACAACAAAAT was tested, and the “gcPBM binding intensity (ln)” value was 10.4.
With “TATAAATAAAGACACACACACACACCGTATAATTAC [CACACA_site7829]” the “gcPBM binding intensity (ln)” value was 6.84.
“TTCCCAACATGATATTGTACATTTAATTATAATTAA [XGTACX_site7029]” was tested, and the “gcPBM binding intensity (ln)” value was 7.08.
In the case of “TAATAAAACATATATACACACATTAGATATACATAT [CACACA_site6897]”, the “gcPBM binding intensity (ln)” value is reported as 6.53.
“TATATCTCTTTATTCACACATACGTTTTAAAATAAT [CACACA_site5542]” was tested, and the “gcPBM binding intensity (ln)” value was 7.17.
In the case of “ATTTGTGTTATTCGAAGTACGGATCATTTGAAATAA [XGTACX_site2510]”, the “gcPBM binding intensity (ln)” value is reported as 6.51.
“TTTATGAGGTTACTATGTACGCAAATTATGTAATAA [XGTACX_site325]” was tested, and the “gcPBM binding intensity (ln)” value was 6.49.
“AAAAGAAGAAACAAAACACACACAGTCTTCTTTTCT [CACACA_site9015]” was tested, and the “gcPBM binding intensity (ln)” value was 6.78.
In the case of “AGCAATTTGGGGTGTACACACACCTTATTTAAATTA [CACACA_site1157]”, the “gcPBM binding intensity (ln)” value is reported as 6.67.
For “TCAAATTATTAAAATACACACATATTATATATATAT [CACACA_site2530]”, the “gcPBM binding intensity (ln)” value was 8.51.
For “GACACCTGCATGAAAGTGCAAAATAGAAAAGGAACA [GTGCAC_site9593]”, the “gcPBM binding intensity (ln)” value was 9.59.
In the case of “TTACCTCTTTGAAATATACACACTAAACATATCAAC [CACACA_site2455]”, the “gcPBM binding intensity (ln)” value is reported as 6.82.
“AAGGAATAATAATAAATGTAAAGAAAAGCATACTGA [CACACA_negctrl_site36]” was tested, and the “gcPBM binding intensity (ln)” value was 6.56.
In the case of “AACACGCACAGACACACACACAAAAATGATTAAAAA [CACACA_site7195]”, the “gcPBM binding intensity (ln)” value is reported as 7.3.
“AAATACCTTATATATACACACTATGTTTTTCTTTTT [CACACA_site4792]” was tested, and the “gcPBM binding intensity (ln)” value was 6.61.
For “AGATATTTTTCTTAAGTACACACTAATTAGAAACTA [CACACA_site7897]”, the “gcPBM binding intensity (ln)” value was 6.4.
In the case of “TTTTTATTTTAAAAGAATAATTATCTAATATCTATA [CACACA_negctrl_site371]”, the “gcPBM binding intensity (ln)” value is reported as 5.71.
In the case of “TCGAACGTATCATGTGTACACACAAATTGTTTTTTT [CACACA_site8623]”, the “gcPBM binding intensity (ln)” value is reported as 7.31.
